Source: the supplement of paper PMC8728848
Some of the results follow.

Tests used:
Experiment in all cases: glycan array binding signal (z-score within array); higher = stronger binding
Conditions in all cases: glycan notation: IUPAC condensed, linker removed
Gal(b1-4)Glc = molecular target: Gal(b1-4)Glc
Method in brief: (§1)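 Arrays were curated from the Consortium for Functional Glycomics database, 3228 in total, and kept only where the protein sequence was available. Binding is expressed as a within-array Z-score. This score was averaged across arrays of the same protein sequence at different concentrations or buffers and across linkers, and negative values can be read as non-binding.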

Gal(b1-4)Glc6S = molecular target: Gal(b1-4)Glc6S
Method in brief: as §1

Gal(b1-4)GlcNAc = molecular target: Gal(b1-4)GlcNAc
Method in brief: as §1

[1] = molecular target: Gal(b1-4)GlcNAc(a1-6)Gal(b1-4)GlcNAc
Method in brief: as §1

Gal(b1-4)GlcNAc(b1-2)Man = molecular target: Gal(b1-4)GlcNAc(b1-2)Man
Method in brief: as §1

[2] = molecular target: Gal(b1-4)GlcNAc(b1-2)Man(a1-3)Man(b1-4)GlcNAc(b1-4)GlcNAc
Method in brief: as §1

[3] = molecular target: Gal(b1-4)GlcNAc(b1-2)Man(a1-3)[Gal(b1-4)GlcNAc(b1-2)Man(a1-6)]Man(b1-4)GlcNAc(b1-4)GlcNAc
Method in brief: as §1

[4] = molecular target: Gal(b1-4)GlcNAc(b1-2)Man(a1-3)[Gal(b1-4)GlcNAc(b1-2)Man(a1-6)]Man(b1-4)GlcNAc(b1-4)[Fuc(a1-6)]GlcNAc
Method in brief: as §1

[5] = molecular target: Gal(b1-4)GlcNAc(b1-2)Man(a1-3)[Gal(b1-4)GlcNAc(b1-2)Man(a1-6)][Gal(b1-4)GlcNAc(b1-4)]Man(b1-4)GlcNAc(b1-4)[Fuc(a1-6)]GlcNAc
Method in brief: as §1

[6] = molecular target: Gal(b1-4)GlcNAc(b1-2)Man(a1-3)[Gal(b1-4)GlcNAc(b1-2)Man(a1-6)][GlcNAc(b1-4)]Man(b1-4)GlcNAc(b1-4)[Fuc(a1-6)]GlcNAc
Method in brief: as §1

[7] = molecular target: Gal(b1-4)GlcNAc(b1-2)Man(a1-3)[GlcNAc(b1-2)Man(a1-6)]Man(b1-4)GlcNAc(b1-4)GlcNAc
Method in brief: as §1

[8] = molecular target: Gal(b1-4)GlcNAc(b1-2)Man(a1-3)[GlcNAc(b1-4)][Gal(b1-4)GlcNAc(b1-2)Man(a1-6)]Man(b1-4)GlcNAc(b1-4)GlcNAc
Method in brief: as §1

[9] = molecular target: Gal(b1-4)GlcNAc(b1-2)Man(a1-3)[Man(a1-6)]Man(b1-4)GlcNAc(b1-4)GlcNAc
Method in brief: as §1

[10] = molecular target: Gal(b1-4)GlcNAc(b1-2)Man(a1-6)Man(b1-4)GlcNAc(b1-4)GlcNAc
Method in brief: as §1

[11] = molecular target: Gal(b1-4)GlcNAc(b1-2)Man(a1-6)[GlcNAc(b1-2)Man(a1-3)]Man(b1-4)GlcNAc(b1-4)GlcNAc
Method in brief: as §1

[12] = molecular target: Gal(b1-4)GlcNAc(b1-2)Man(a1-6)[Man(a1-3)]Man(b1-4)GlcNAc(b1-4)GlcNAc
Method in brief: as §1

[13] = molecular target: Gal(b1-4)GlcNAc(b1-2)[Gal(b1-4)GlcNAc(b1-4)]Man(a1-3)[Gal(b1-4)GlcNAc(b1-2)Man(a1-6)]Man(b1-4)GlcNAc(b1-4)GlcNAc
Method in brief: as §1

[14] = molecular target: Gal(b1-4)GlcNAc(b1-2)[Gal(b1-4)GlcNAc(b1-4)]Man(a1-3)[Gal(b1-4)GlcNAc(b1-2)[Gal(b1-4)GlcNAc(b1-6)]Man(a1-6)]Man(b1-4)GlcNAc(b1-4)GlcNAc
Method in brief: as §1

[15] = molecular target: Gal(b1-4)GlcNAc(b1-2)[Gal(b1-4)GlcNAc(b1-4)]Man(a1-3)[GlcNAc(b1-4)][Gal(b1-4)GlcNAc(b1-2)Man(a1-6)]Man(b1-4)GlcNAc(b1-4)GlcNAc
Method in brief: as §1

[16] = molecular target: Gal(b1-4)GlcNAc(b1-2)[Gal(b1-4)GlcNAc(b1-4)]Man(a1-3)[GlcNAc(b1-4)][Gal(b1-4)GlcNAc(b1-2)[Gal(b1-4)GlcNAc(b1-6)]Man(a1-6)]Man(b1-4)GlcNAc(b1-4)GlcNAc
Method in brief: as §1

[17] = molecular target: Gal(b1-4)GlcNAc(b1-2)[Gal(b1-4)GlcNAc(b1-6)]Man(a1-6)[Gal(b1-4)GlcNAc(b1-2)Man(a1-3)]Man(b1-4)GlcNAc(b1-4)GlcNAc
Method in brief: as §1

[18] = molecular target: Gal(b1-4)GlcNAc(b1-2)[Gal(b1-4)GlcNAc(b1-6)]Man(a1-6)[Gal(b1-4)GlcNAc(b1-2)Man(a1-3)]Man(b1-4)GlcNAc(b1-4)[Fuc(a1-6)]GlcNAc
Method in brief: as §1

B1: FimA-N1 (Actinomyces oris) (protein)
chain: MHHHHHHSSGVDLGTENLYFQSNATETPNYGNIKTDATGSLVIHKHLTGGGKDIGTPTGTAQNADDKGPAVEGVVFTAYPITDINLKDPAGWDTISNLSRTGVPDSACANPAAPTLGAHQFGTPKVSPATTKEGLATITEMPVQAYLVCETTTPGDIVQKAKPFVVTIPHPNTAAGADGQWIYDVNVYPKNEAIDVDKTIQAQK
- glycan array binding signal (z-score) (Gal(b1-4)Glc): 0.048
- glycan array binding signal (z-score) (Gal(b1-4)Glc6S): -0.211
- glycan array binding signal (z-score) (Gal(b1-4)GlcNAc): -0.171
- glycan array binding signal (z-score) [1]: -0.075
- glycan array binding signal (z-score) (Gal(b1-4)GlcNAc(b1-2)Man): -0.271
- glycan array binding signal (z-score) [2]: 0.25
- glycan array binding signal (z-score) [3]: 0.094
- glycan array binding signal (z-score) [4]: -0.016
- glycan array binding signal (z-score) [5]: -0.335
- glycan array binding signal (z-score) [6]: -0.333
- glycan array binding signal (z-score) [7]: -0.099
- glycan array binding signal (z-score) [8]: -0.179
- glycan array binding signal (z-score) [9]: -0.453
- glycan array binding signal (z-score) [10]: -0.363
- glycan array binding signal (z-score) [11]: -0.528
- glycan array binding signal (z-score) [12]: -0.16
- glycan array binding signal (z-score) [13]: -0.433
- glycan array binding signal (z-score) [14]: -0.483
- glycan array binding signal (z-score) [15]: 0.043
- glycan array binding signal (z-score) [16]: 1.32
- glycan array binding signal (z-score) [17]: -0.435
- glycan array binding signal (z-score) [18]: -0.118
